How the values were obtained:
[1] = for Liver microsome metabolic stability (% remaining) mouse: microsomes, 1 h
[2] = for Liver microsome metabolic stability (% remaining) human: microsomes, 1 h
[3] = human, rat, mouse, 1 h
[4] = for Liver microsome metabolic stability (% remaining) rat: microsomes, 1 h
rat ER α-glucosidase I = rat ER α-glucosidase I (Rattus norvegicus, UniProt O88941); experiment: biochemical
ER α-glucosidases = conditions: mouse, in vivo, ip, 75 mg/kg

Row | Compound | Liver microsome metabolic stability (% remaining) mouse [1] [% remaining] | Liver microsome metabolic stability (% remaining) human [2] [% remaining] | drug remained in liver microsomes [3] | Liver microsome metabolic stability (% remaining) rat [4] [% remaining] | metabolic stability in mouse liver microsomes (in words) [1] | metabolic stability in human liver microsomes (in words) [2] | metabolic stability in rat liver microsomes (in words) [4] | IC50 (rat ER α-glucosidase I) [nM] | Glc1Man4GlcNac1 glycan in sera compared to CM-10-18 (ratio Glc1Man4GlcNac1/Man4GlcNac1) (ER α-glucosidases) | hyper-glucosylated FOS (Glc1Man4GlcNac1) in sera (ER α-glucosidases)
1 | OC[C@@H]1[C@@H](O)[C@H](O)[C@@H](O)CN1CCCCCCOc1cc(F)ccc1F [IHVR11029, (2R,3R,4R,5S)-1-(6-(2,5-difluorophenoxy)hexyl)-2-(hydroxymethyl)piperidine-3,4,5-triol] | 91 | 91 | 79-93% | 79 | – | – | – | – | – | –
2 | CC(C)(C)C(=O)N(CCCCCCN1C[C@H](O)[C@@H](O)[C@H](O)[C@H]1CO)C1CCCCC1 [IHVR17028, N-cyclohexyl-N-(6-((2R,3R,4R,5S)-3,4,5-trihydroxy-2-(hydroxymethyl)piperidin-1-yl)hexyl)pivalamide] | 59 | 42 | – | 27 | relatively more stable | relatively more stable | metabolically un-stable | – | – | –
3 | CC(C)(C)NC(=O)N(CCCCCCN1C[C@H](O)[C@@H](O)[C@H](O)[C@H]1CO)C1CCCCC1 [IHVR19029, 3-(tert-butyl)-1-cyclohexyl-1-(6-((2R,3R,4R,5S)-3,4,5-trihydroxy-2-(hydroxymethyl)piperidin-1-yl)hexyl)urea] | 87 | 93 | 79-93% | 92 | – | – | – | 480 ± 170 | over 2 times | observed
